Test results published in PMC4245550, “Exploring the Chemodiversity and Biological Activities of the Secondary Metabolites from the Marine Fungus Neosartorya pseudofischeri” (Marine Drugs, 2014).

System: RKO (a poorly differentiated colon carcinoma cell line)
Test: Cytotoxicity, MTS assay
Details: Homo sapiens, 72 h

## O=c1[nH]cc(F)c(=O)[nH]1 [5-Fluorouracil, reference compound]
  IC50: 45.9 ± 4.58 µM

## CN1C(=O)C(=O)n2c(cc3ccccc32)C1=O [Compound 5, 1,2,3,4-tetrahydro-2-methyl-1,3,4-trioxopyrazino[1,2-a]indole]
  IC50: > 50 µM

## CSC1(CO)NC(=O)C(Cc2ccccc2)(SC)NC1=O (stereo not drawn) [Compound 13, bis-N-norgliovictin]
  IC50: > 50 µM
